In publication PMC3201865 (Nucleic Acids Research, 2011):

Molecular target: T1, recombinant full-length UHRF1 (human, UniProt Q96T88 1-793)
T1 sequence: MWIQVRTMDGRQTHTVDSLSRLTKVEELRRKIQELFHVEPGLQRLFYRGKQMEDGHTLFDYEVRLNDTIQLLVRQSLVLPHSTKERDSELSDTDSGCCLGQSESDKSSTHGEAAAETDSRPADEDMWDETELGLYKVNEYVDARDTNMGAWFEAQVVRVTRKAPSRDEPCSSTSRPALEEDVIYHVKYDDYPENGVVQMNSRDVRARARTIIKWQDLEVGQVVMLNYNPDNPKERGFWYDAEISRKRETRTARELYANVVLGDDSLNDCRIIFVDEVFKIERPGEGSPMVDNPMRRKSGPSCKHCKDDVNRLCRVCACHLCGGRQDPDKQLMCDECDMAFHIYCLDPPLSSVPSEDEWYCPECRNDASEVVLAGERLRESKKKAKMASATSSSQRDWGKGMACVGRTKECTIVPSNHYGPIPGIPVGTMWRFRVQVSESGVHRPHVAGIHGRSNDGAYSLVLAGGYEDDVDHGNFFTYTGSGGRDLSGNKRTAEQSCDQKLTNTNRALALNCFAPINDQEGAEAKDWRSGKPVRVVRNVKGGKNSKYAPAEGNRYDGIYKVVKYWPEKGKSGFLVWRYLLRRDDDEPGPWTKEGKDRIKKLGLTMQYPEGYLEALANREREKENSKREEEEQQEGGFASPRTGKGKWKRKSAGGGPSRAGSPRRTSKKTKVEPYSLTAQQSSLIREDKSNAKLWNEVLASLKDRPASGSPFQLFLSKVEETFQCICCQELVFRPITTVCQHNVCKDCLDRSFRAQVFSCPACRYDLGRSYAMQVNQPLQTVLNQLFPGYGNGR
Assay: pull-down

B1: GST-TRAF domain of USP7 ([…]) (domain or fragment)
chain: MNHQQQQQQQKAGEQQLSEPEDMEMEAGDTDDPPRITQNPVINGNVALSDGHNTAEEDMED[letters of about 150 residues left out]DSKKHTGYVG
- binding result: binds
